Assay results taken from the supplement of paper PMC3334620.
The full ranking holds about 33,000 sequences; the median of “E-score (-0.5 to 0.5)” is about -0.011, and the highest 2% start at about 0.28. Some of the results follow.

These sequences were tested against T1, Gcr1 (UniProt P07261) (assay: PBM E-score (8-mer binding enrichment) (E-score (-0.5 to 0.5)); higher = stronger / more preferred TF binding; most listed sequences are background and not binding sites). Conditions: protein concentration: 100 nM; construct: GST-full length.
T1 sequence: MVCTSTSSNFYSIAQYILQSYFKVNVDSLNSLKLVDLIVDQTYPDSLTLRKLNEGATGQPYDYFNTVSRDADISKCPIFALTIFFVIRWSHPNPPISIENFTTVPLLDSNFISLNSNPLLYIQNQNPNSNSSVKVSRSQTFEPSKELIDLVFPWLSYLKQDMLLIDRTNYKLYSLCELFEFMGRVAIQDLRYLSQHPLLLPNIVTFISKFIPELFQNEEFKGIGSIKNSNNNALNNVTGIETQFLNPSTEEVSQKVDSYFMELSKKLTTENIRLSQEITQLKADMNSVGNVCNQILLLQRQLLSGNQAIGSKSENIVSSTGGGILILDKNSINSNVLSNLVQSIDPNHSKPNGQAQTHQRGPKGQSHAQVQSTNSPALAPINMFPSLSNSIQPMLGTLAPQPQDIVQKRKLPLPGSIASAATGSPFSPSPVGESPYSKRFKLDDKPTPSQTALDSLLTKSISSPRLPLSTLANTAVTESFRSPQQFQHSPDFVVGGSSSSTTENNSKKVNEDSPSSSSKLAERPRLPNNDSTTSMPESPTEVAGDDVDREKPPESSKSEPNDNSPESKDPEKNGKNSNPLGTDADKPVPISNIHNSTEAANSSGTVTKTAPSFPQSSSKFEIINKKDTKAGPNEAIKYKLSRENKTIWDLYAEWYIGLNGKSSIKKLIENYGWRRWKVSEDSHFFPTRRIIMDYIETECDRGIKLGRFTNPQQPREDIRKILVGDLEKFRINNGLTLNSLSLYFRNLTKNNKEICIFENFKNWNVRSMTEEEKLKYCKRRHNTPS
How it was run: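 Universal all-10-mer Agilent arrays, fresh or stripped once, were converted to double-stranded form by primer extension. GST-tagged yeast transcription factors from PURExpress in vitro transcription/translation, full-length or DNA-binding domain only, were applied at about 100-200 nM and detected with fluorescent anti-GST. After masliner normalisation, the Universal PBM Analysis Suite scored each ungapped eight-base word together with its reverse complement by E-score.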

Sequence	PBM E-score
ATTCCGGG	0.121
AGGTAATC	-0.103
CGCGTATC	0.101
CCATTACA	0.0797
CGGAGCCA	0.282
GAGGGCAC	-0.17
GCTTAGGA	-0.1
ATTATAAG	0.0645
CAATATCG	0.0234
ACGGCAAA	0.0638
AGCCCCCC	-0.0635
ACCCTTTA	-0.0902
GCATCTTA	0.257
AACCCCCC	-0.23
ATGCCCCC	-0.0687
CGCAGAGC	-0.291
CTAACTGC	-0.107
GTCCTTGA	-0.0351
AAAAGCGA	0.041
CATCGTGC	-0.225
AACCGTCG	-0.137
CCTATGCG	-0.0507
ATCCCGCA	0.217
CTCCGTGA	-0.00424
ACCTACAG	-0.277

Sequence	PBM E-score
AAGACTGA	-0.126
CCGAAAAC	0.177
GAGACTAC	-0.0961
ACATACAG	-0.188
GTACTAAC	0.0599
CATCAAGG	0.0321
CCAATTAC	0.124
GTCGCTGA	0.175
GACCACAA	0.0254
AATGGTAG	0.12
AGCGATGG	-0.11
AAATGCTG	0.00058
CCTGAGTA	0.198
AATTAAGC	-0.0303
CTTGGTGA	0.138
GAATAAGA	0.0225
CTGGCCGC	0.205
CTCAGTAA	-0.113
AAATTATA	0.0346
CATCTGGC	0.0691
TAGAATAA	0.198
CATAGCCC	-0.272
ATAAACTG	0.143
AACTATGC	-0.00366
CTTTAACC	-0.0388

Sequence	PBM E-score
AAGCCAAA	-0.0579
ACGTTGAG	-0.0959
CCGGAAGG	0.0607
GGGCACAC	-0.0584
CACAGGCC	0.0731
GAGCGGGA	-0.121
TCATTGAA	-0.0934
CTGGAATC	0.407
CATTTCGA	-0.165
CGAATGGA	-0.00413
TGTTTTAA	0.059
ATTCCCGA	0.168
ACGTTTAC	-0.00072
AATTAAAA	0.149
CATACACA	-0.0106
TACACTCA	0.00634
GGGGCGGA	-0.11
ATGTCGAA	0.00821
CATCCGGA	0.0473
ACCCACCA	-0.124
CCTCGGTC	-0.223
CTTAGAAC	0.0326
CATTAGAG	-0.184
AGACTCAA	-0.0684
CTAAAACA	0.126

Sequence	PBM E-score
AATGAATG	0.0488
CATTCTGG	0.0135
CTGAAGGA	-0.0128
AAGTGGCG	0.241
CTCTAACA	0.0391
ACCACGAT	0.00321
GCTCGTGA	0.00805
AATTCTTC	0.0967
CTCTAGTA	-0.118
AGTAGTCC	-0.00744
CAGTTTGG	-0.018
GCGTGAGC	0.162
GTCCACCA	-0.0485
CCTCTTTC	0.0512
CGATATGC	-0.00269
GGTTCTAA	0.0995
CATTACAC	0.186
ACCGCTAT	0.123
TAAGGAGA	0.175
CCCTTGAA	-0.0847
ATCCACCG	-0.0897
CGTGGTAA	-0.031
ATGTTTCG	0.12
ATTTGTGC	-0.00492
CCACCTGG	0.0909

Sequence	PBM E-score
GAAAATGC	0.145
AGTCAGAC	-0.102
ATCAACGG	0.139
CCTATCAG	0.102
CAGATACC	0.187
AGCCGATC	-0.166
ACTGGTTG	0.2
AGAGCCTG	-0.076
GCAATGCA	-0.273
GTGAATGA	-0.227
CAGACTGC	-0.0147
AAGGTACG	-0.0548
ACTTTGGG	0.174
AGAGATAG	0.0169
GCCGGGCA	-0.0853
ATACTTGA	-0.0859
AACCCCTA	0.044
GCCAGCGC	-0.0388
ACAATTAC	-0.055
TCTAAGAA	0.0856
ACTCGTAG	-0.186
AGACCGCG	-0.0635
AAGGCCAT	-0.392
CTGCGCAC	0.0368
GGCCTGTA	0.00404

Sequence	PBM E-score
CCTCTTGA	-0.134
GTGGGGAA	0.0372
ACGATCGT	-0.096
AGAACCAC	0.035
GTGTGTAA	-0.0207
ATCATGCA	-0.0453
AGAGGTTC	0.193
CTCACGAG	-0.0581
CTCAATTC	0.167
ACCATTGC	0.0464
GCGAAACA	0.0945
CGAGTTAC	-0.235
GCCGGTCA	-0.0552
GGTGTTAA	0.00498
AACGTAGT	-0.228
ATATGGTA	0.00898
CACATTGA	-0.0137
CGTTGTAA	-0.149
GTAAGATA	-0.0467
ACCCTGGC	-0.0123
GCTAAGCA	-0.0833
AAATAATG	0.123
CCGAATAC	0.258
GGACGAAC	0.00554
GCCCGAGA	0.0192

Sequence	PBM E-score
CCAAGCAC	-0.0882
GAAACGGC	-0.109
CAACTTTA	0.00622
CTCGTCAC	0.1
ACTACATC	-0.114
TATCAAAA	0.0902
GATCACAA	0.0422
ATATACAA	-0.0374
CCGAGAGC	-0.045
GCGCCCAA	0.18
TCTATAGA	-0.194
AAAGGAAC	0.219
AGGCCCAT	-0.0769
GAGGCCCC	0.0233
CTAACCTC	0.011
ACGGGTAA	-0.102
CAGCTTGG	-0.00404
GCGAAACC	0.0128
CACCGCAC	-0.0228
GCATGGCA	0.0488
GGTGATAC	-0.00348
AAAAGCAG	0.095
